Source: PubChem BioAssay AID1745853 (National Center for Advancing Translational Sciences (NCATS), 2022)
The other results are listed elsewhere or left out. These are further read-outs of the screen, such as a control signal, another cell line or another target. No call is given for them.

Columns and labels:
Assay in all cases: Primary Screen for Target Class Profiling of Small Molecule Inhibitors of Methyltransferases
[1] = target: Glycine N-methyltransferase (Homo sapiens) (UniProt Q14749); conditions: purified enzyme, MTase-Glo SAH luminescence; measured here: GNMT inhibition; at 40 µM; stronger effect = lower value
Method in brief: (§1)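 Each enzyme was reacted with SAM and its substrate, with compounds tested once at 40 uM; SAH formed was read by MTase-Glo luminescence.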

[2] = target: Guanidinoacetate N-methyltransferase (Homo sapiens) (UniProt Q14353); conditions: purified enzyme, MTase-Glo SAH luminescence; measured here: GAMT inhibition; at 40 µM; stronger effect = lower value
Method in brief: as §1

[3] = target: Histamine N-methyltransferase (Homo sapiens) (UniProt P50135); conditions: purified enzyme, MTase-Glo SAH luminescence; measured here: HNMT inhibition; at 40 µM; stronger effect = lower value
Method in brief: as §1

[4] = target: Nicotinamide N-methyltransferase (Homo sapiens) (UniProt P40261); conditions: purified enzyme, MTase-Glo SAH luminescence; measured here: NNMT inhibition; at 40 µM; stronger effect = lower value
Method in brief: as §1

[5] = target: Phenylethanolamine N-methyltransferase (Homo sapiens) (UniProt P11086); conditions: purified enzyme, MTase-Glo SAH luminescence; measured here: PNMT inhibition; at 40 µM; stronger effect = lower value
Method in brief: as §1
% is scaled to controls: 0 for no effect and ±100 for the full control effect.

SMILES | activity change, negative = inhibition [1] | activity change, negative = inhibition [2] | activity change, negative = inhibition [3] | activity change, negative = inhibition [4] | activity change, negative = inhibition [5]
Cc1cccc(Cn2nc3n(Cc4ccccc4)c(=O)c4ccc(C(=O)NC5CCCC5)cc4n3c2=O)c1 | 3.69% | 0% | 4.96% | -0.692% | 2.61%
O=C(NCc1ccc(Cl)cc1)c1ccc2c(=O)[nH]c3c(C(=O)NC4CCCC4)sc(=S)n3c2c1 | -42.8% | 1.99% | -8.8% | -61.5% | -20.4%
CC(C(=O)Nc1cc(C#N)ccc1CCCC(=O)O)c1ccc(F)c2ccccc12 (stereo not given) | -5.79% | -5.54% | 2.48% | -20.8% | 0.586%
Cc1ccc(NC(=O)Cn2c(=O)oc3cc(S(=O)(=O)N4CCCC4)ccc32)cc1 | -1.06% | 4.91% | -0.154% | 12% | -9.73%
CC1(C(=O)NC2CCCC2)Cn2c(cc3sccc32)C(=O)N1Cc1cccc(Cl)c1 (stereo not given) | -6.12% | 3.89% | -6.47% | -9.58% | -6.55%
CCC1c2ccc(C)n2CCN1C(=O)NCc1ccc(C)cc1 (stereo not given) | -1.93% | 3.64% | -4.13% | -1.41% | -5.8%
COc1ccccc1CN1C(=O)c2ccc(-c3ccco3)n2CC1(C)C(=O)NC1CCCCC1C (stereo not given) | 1.85% | 0.787% | 9.05% | 3.67% | 1.05%
CCCNC(=O)CCc1ccnc(N2CCCC2)c1 | -1.59% | -5.78% | -23.4% | -9.47% | -16.8%
Cn1cnc(S(=O)(=O)N2C[C@@H](Oc3ccccc3)C[C@H]2C(=O)N2CCOCC2)c1 | -0.609% | -1.52% | 0.473% | -0.771% | -6.6%
Cc1ccc(C(=O)N2CC[C@@](C)(O)[C@@H](Cc3ccccc3)C2)cc1C | -2.18% | -3.28% | -1.06% | -11% | -0.28%
COc1cc(Nc2ncc(F)c(Nc3ccc4c(n3)NC(=O)C(C)(C)O4)n2)cc(OC)c1OC | -14.7% | -4.95% | -12% | -23.2% | -15.6%
CCCCCCc1cccc(NC(=O)[C@H](N)CCP(=O)(O)O)c1 | 2.87% | 3.56% | 13.9% | -7.79% | 6.55%
Cc1ccc(N2C(=O)c3cc(C(C)(C)C)nn3CC2(C)C(=O)NC2CCCCC2)cc1C (stereo not given) | -13.1% | -2.29% | -5.08% | -20.3% | -3.27%
CCOc1ccc(C(=O)Cn2nc3n(C)c(=O)c4ccc(C(=O)NC5CCCCC5)cc4n3c2=O)cc1 | -4.03% | -2.84% | -2.77% | 6.51% | -1.31%
COc1ccc(C(=O)n2c(C)c(Cc3cccc(O[C@@H](C)C(=O)O)c3)c3cc(OC(F)(F)F)ccc32)cc1 | -38.6% | 5.06% | 2.31% | -37.1% | -0.929%
